Molecules are shown by their SMILES. “And” between values parts separate entries of the source, which are not always exact repeats. Identical values can stand only once. The full ranking holds about 13,000 compounds; the median of “IFI” is about 4, and the highest 2% start at about 17. The list shows a part of the results.

A short description of the assay: GSK_TCMDC: Inhibition Frequency Index (IFI). The number of non-kinase HTS assays where a compound showed > 50 % inhibition, expressed as a percentage of the number of such assays in which the compound was tested (-0 is zero). Type of assay: functional.
`CC(C)N(Cc1ccc(-c2ccc(C(F)(F)F)cc2)cc1)C(=O)Cn1c(SCc2cccc(F)c2F)cc(=O)c2cc(CN3CCCCC3)ccc21` gave an IFI of 11.8%. In turn, `CN(/N=C/C=C/c1ccc(Cl)cc1)c1nc(NCCc2ccc(O)cc2)nc(N2CCNCC2)n1` registered an IFI of 5.11%.

For `O=C(Nc1ccc(Cl)cc1)Nc1cccc(-c2cc(CNCCc3ccccc3)oc2-c2ccncc2)c1`, the IFI was 14.2%. The value for `Cc1cc(N[C@@H](Cc2ccccc2)C(=O)NCc2cccs2)nc(NCCc2ccccc2)n1` was 11.4%.

`O=C(Cc1c[nH]cn1)Nc1ccc(-c2ccc(-c3nc4cc(C(F)(F)F)ccc4[nH]3)s2)cc1` gave an IFI of 5.56%. The value for `CCC1(c2ccccc2)N=C(N)N(CCCc2ccccc2)C1=O` (stereo unspecified) was 7.14%. On to `CCCC(C)Nc1nc(C)cc(N[C@@H](CC(C)C)C(=O)Nc2ccc(OC)cc2)n1` (stereo partly specified), for which the IFI amounted to 7.69%. The value for `COc1cc(Cc2cnc(N)nc2N)cc(OCCCCC2SC(=O)NC2=O)c1Br` (stereo unspecified) was 0.73%; that for `CN(C)CCCN1CCN(C(=O)c2cc3cc(-c4ccccc4)ccc3n2S(=O)(=O)c2ccccc2)CC1` was 5.41%. As for `CN(C)CCNC(=O)c1cc2c(-c3ccc(Cl)cc3)nn(C)c2s1`, the figure is 3.64%; as for `COc1ccc(C2CCC(NCCCCNC(=O)c3ccc(NC(=O)c4ccc(Cl)cc4)cc3)CC2)cc1` (stereo unspecified), 3.57%; as for `N#Cc1ccc(-c2nc3c(N4CCCC4)cccc3n2CCNCc2ccccc2)cc1`, 6.9%.

Turning to `CC1CCN(c2nc(C(=O)Nc3cccc4c3CCCC4)c(C(C)C)s2)CC1`, the IFI was found to be 8.82%. The value for `CCOc1ccc(C2CCN(CCCCNC(=O)c3ccc(NC(=O)c4ccc(Cl)cc4)cc3)CC2)c(CC)c1` was 0.76%. As for `CCNC1=NC2=C(CC(C(C)(C)C)CC2)C2(CCC(C(C)(C)C)CC2)S1` (stereo unspecified), the figure is 6.52%; as for `CN(C)c1ccc(C=C2SC(=O)N=C2Nc2ccccc2)cc1`, 2.76%; as for `Clc1cccc(C=NN=c2cc[nH]c3ccccc23)c1`, -0%. As for `Cc1c(OC(C)C)nc2ccccc2c1C(=O)N[C@H](c1cccc(F)c1)C1CC1`, the figure is 1.54%. With `COc1ccc(-c2ccc(S(=O)(=O)Nc3cc4c(cc3OC(C)C)CCNCC4)cc2)cc1`, the IFI amounted to 9.29%. As for `O=C(N[C@@H](Cc1ccccc1)CN1CCC(Oc2ccc(F)cc2)CC1)c1ccc(OCCCN2CCCCC2)cc1`, the figure is 9.03%; as for `COc1c(C2CCN(CCCCNC(=O)c3ccc(-c4ccc(C#N)cc4)c(O)c3)CC2)ccc2c1CCCC2`, 7.34%; as for `COc1cc(F)c2ncc(C#N)c(CCN3CCC(NCc4ccc5c(c4)OCCO5)CC3)c2c1`, 3.13%. As for `COc1cc(CNC[C@@H](O)[C@H](Cc2ccccc2)NC(=O)c2cc(C3CCCC3)cc(N3CCCS3(=O)=O)c2)cc(OC)c1`, the figure is 8.51%; as for `OCCNc1nc(Nc2ccccc2)nc2ccccc12`, 1.38%; as for `COc1cc(Cc2cnc(N)nc2N)cc(CC(C)O)c1O` (stereo unspecified), 0%. The value for `COc1ccc(NC(=O)[C@H](Cc2ccccc2)Nc2nc(NCCN3CCCC3)ncc2C)cc1` was 4.76%. Compound `O=C(NCc1cccc(F)c1)Nc1cccc(-c2cccc(-c3nc4cc(C(F)(F)F)ccc4[nH]3)c2)c1` returned an IFI of 6.93%.

Consider `COC(=O)c1cccc(CNCc2ccc(-c3ccc(-c4nc5cccc(C)c5[nH]4)s3)cc2)c1`, for which the IFI was 7.55%. As for `CCCc1cc(NC2CCN(C)CC2)nc(Nc2ccc(C)cc2)n1`, the figure is 2.94%.

In the case of `Cc1cc2cc(/C=C/C(=O)NC3CCC(CCN4CCc5ccc(C#N)cc5CC4)CC3)ccc2[nH]1` (stereo unspecified), the IFI was 2.27%. As for `O=C(NCc1cccc2ccccc12)[C@@H]1CCCN1C(=O)c1ccc(O)c(-c2ccc(Cl)c(Cl)c2)c1`, the figure is 0.74%. In the case of `CN1CCN(c2ccnc3ccc(NC(=O)Nc4cccc5c(-c6ccncc6)cccc45)cc23)CC1`, the IFI is 0%. The value for `Cc1ccc(NC(=O)c2ccc(CN3CCCN(Cc4cccc(O)c4)CC3)cc2)cc1F` was 9.45%; that for `O=C(Nc1ccc(-c2ccccc2)cc1)Nc1cccc(Cn2nc(Cl)c(N3CCNCC3)cc2=O)c1` was 7.69%; that for `CCOc1ccc(C2CCN(CCCCNC(=O)c3ccc(NC(=O)c4ccc(Cl)cc4)cc3)CC2)c(OCC)c1` was 0.74%.

For the compound `Clc1ccc(CNc2ccnc(NCc3ccc4c(c3)OCCCO4)n2)c(Cl)c1`, the IFI came to 7.69%. The value for `c1cncc(NCc2ccc(-c3cc4ccncc4cc3OC3CCNCC3)s2)c1` was 3.33%; that for `CCCCCCNC(=O)C(N)CCCC(N)C(=O)NCCCCCC` (stereo unspecified) was 1.42%; that for `O=C(Nc1cccc(CN2CCN(Cc3cccc(O)c3)CC2)c1)c1ccc(Cl)c(Cl)c1` was 3.97%. The value for `Cc1cccc(C)c1C1CCN(CCCCNC(=O)c2cc3ccccc3[nH]2)CC1` was 9.23%; that for `O=C1NC(c2ccccc2)C2(CCN(CC(O)COc3cccc4ncccc34)CC2)O1` (stereo unspecified) was -0%; that for `O=C(NCCN1CCC(NC(=O)c2ccc(-c3ccccn3)s2)CC1)c1cccc(C(F)(F)F)c1` was 0.69%. As for `COc1ccccc1NC(=O)Nc1cccc(-c2cccc(-c3nc4cccc(C)c4[nH]3)c2)c1`, the figure is 3.03%. `COc1cc2c(cc1CCNCCCCNCCc1cc3c(cc1OC)CCCC3)CCCC2`: the IFI was 15.8%.

`NC1CCN(Cc2ccc(-c3ccc(-c4nc5cc(F)ccc5[nH]4)s3)cc2)C1` (stereo unspecified) came in with an IFI of 4.35%. As for `COc1cc(NC(=O)/C=C/c2cccc3cc[nH]c23)ccc1OCCN(C(C)C)C(C)C`, the figure is 2.84%; as for `Cc1ccc(C)c(NC(=O)NC2CCN(c3ccnc(Nc4ccc(F)cc4)n3)C2)c1` (stereo unspecified), 1.54%; as for `Fc1ccc2[nH]c(-c3cccc(-c4ccc(CNCCN5CCNCC5)cc4)c3)nc2c1`, 5.88%. In turn, `Cc1noc(C)c1-c1ccc2c(Nc3ccc(C(F)(F)F)cc3)c(C(N)=O)cnc2c1` yielded an IFI of 2.44%.

Turning to `CC(C)Oc1cc2c(cc1NS(=O)(=O)c1ccc(-c3ccc(Cl)cc3)cc1)CCN(C)CC2`, the IFI came to 12.4%. As for `COC(=O)c1cccc(CNCc2cccc(-c3cccc(-c4nc5cc(F)ccc5[nH]4)c3)c2)c1`, the figure is 5.83%; as for `CCc1nonc1NC(=O)c1oc2c(C)c(C)ccc2c1C`, 0.98%. `CCCC(C)Nc1nc(C)cc(N[C@@H](Cc2ccccc2)C(=O)Nc2ccccc2)n1` (stereo partly specified) showed an IFI of 9.09%.

As for `CCCC(C)Nc1nc(C)cc(NCCC(=O)Nc2ccccc2)n1` (stereo unspecified), the IFI worked out at 4.55%.

As for `COc1ccc(O)cc1Cc1cnc2nc(N)nc(N)c2c1C`, the IFI turned out to be 2.24%. As for `Cc1cccc(CCCNC(=O)CN(c2cccc(C(F)(F)F)c2)S(=O)(=O)c2ccc(C(F)(F)F)cc2)c1`, the figure is 4.81%; as for `COc1ccc(NC(=O)Nc2ccc(-c3cccc(-c4nc5cccc(C)c5[nH]4)c3)cc2)cc1`, 4%.

`N[C@@H](CCNC1CCN(c2cccc(C(F)(F)F)c2)CC1)Cc1ccc(F)c(F)c1` yielded an IFI of 6.25%. The value for `COc1ccc(-c2cccc(NC(=O)c3cccc(C#N)c3)c2)cc1CN(C)CCN(C)C` was 0%; that for `Cn1nc(-c2cccc(CNC3CCc4ccccc43)c2)c2cnc(NCCCN3CCCC3)nc21` (stereo unspecified) was 7.69%; that for `CN(CCO)Cc1cccc(-c2ccc(NC(=O)c3cccc(C#N)c3)cc2)c1` was 1.98%. As for `CS(=O)(=O)Nc1ccc(-c2cnc3[nH]cc(-c4ccc(C(=O)O)cc4)c3c2)cc1`, the figure is 4.95%; as for `Cc1cc(N[C@@H](CC(C)C)C(=O)NC2CCCC2)nc(NCc2ccccc2C)n1`, 5.13%. The value for `O=C(N[C@H]1CCN(Cc2ccc(OCCN3CCCC3)c3ccccc23)C1)c1ccc(Cl)c(Cl)c1` was 8%; that for `COc1cc(CN2CCC(N3CCc4cc(NC(=O)c5cc(C)on5)ccc43)C2)ccc1F` (stereo unspecified) was 0%; that for `OCCNc1nc(Nc2cccc(O)c2)nc2ccccc12` was 1.35%. Take `Cc1cc(N(C)C2CCN(C)C2)nc(Nc2ccccc2Cl)n1` (stereo unspecified): the IFI came out at 1.19%. As for `CN(C)CCCNc1ccnc2cc(Cl)ccc12`, the figure is 0%. The value for `CC(C)(C)c1nn(-c2ccc(Cl)cc2)c2[nH]c(=O)c(CNC3CCCC3)cc12` was 2.33%. In the case of `CN1CCN(Cc2ccc(-c3ccc4c(Nc5ccc(Oc6ccccn6)cc5)ccnc4c3)o2)CC1`, the IFI was 6.57%.

For `O=C(CCCCCNC(=O)c1ccc(O)c(-c2ccc(Cl)c(Cl)c2)c1)NC1CCCCCC1`, the IFI amounted to 0.74%. As for `CC(=O)c1cc(N2CCCC2)ccc1N`, the figure is 3.64%; as for `Cc1cc(=O)c(-c2ccc(Oc3cccc(C(F)(F)F)c3)cc2)c(C)[nH]1`, 2.56% and 2.24%; as for `CCCCCCc1cc(Oc2c(I)cc(C[C@H](N)C(=O)O)cc2I)ccc1O`, 8.51%. As for `O=C(Nc1cccc(-c2cc3ccccc3[nH]2)c1)C1CCN(Cc2ccccc2O)CC1`, the figure is 11.9%.

As for `Cc1cc2c(NC(=O)NC3CCN(CCc4ccccc4Cl)CC3)cccc2cn1`, the IFI was 0.72%.

In the case of `O=S(=O)(c1ccc(Oc2ccccc2)cc1)N(CCC(O)(C(F)(F)F)C(F)(F)F)Cc1cccc(O)c1`, the IFI came out at 4.35%. The value for `O=c1cc(NCCCNCc2cc3ccc(Br)cc3s2)[nH]c2ccccc12` was 4.51%.

Turning to `COc1ccc(NC(=O)[C@H](Cc2ccccc2)Nc2cc(C)nc(NCCc3ccc(F)cc3)n2)cc1`, the IFI came out at 13.6%. On to `O=C1c2ccccc2C(=O)N1CCOc1c(Br)cc(Br)cc1CNCCCNc1cc(=O)c2ccccc2[nH]1`, for which the IFI is 3.52%.

As to `CN1CCN(CC(O)CNC(=O)Nc2ccc(Br)cc2)CC1` (stereo unspecified), the IFI is -0%. As for `O=C(Nc1ccccc1Cc1ccccc1)c1ccccc1[N+](=O)[O-]`, the figure is -0%. `CC(C)(C)C(C)(C)Cc1ccc(O)c(CN2CCN(c3ccccc3)CC2)c1`: the IFI worked out at 1.67%.

The compound `COc1ccc2nc3cc(Cl)ccc3c(N)c2c1` yielded an IFI of 14.1%. The value for `O=C(c1cc(-c2ccccc2O)on1)N1CCN(C(c2ccccc2)c2ccccc2)CC1` was 1.06%. `CN1CCC(C(=O)N(Cc2ccc(-c3ccc(CNCCc4ccccc4)cn3)cc2)C2Cc3ccccc3C2)CC1` registered an IFI of 8%. The value for `CCCCCc1ccc(N2C(N)=NC(N)=NC2(C)C)cc1` was 4.44%; that for `COc1cccc2c(NN=Cc3cccc(Cl)c3)ccnc12` was 3.62%. In turn, `COc1cccc(Nc2c(C(N)=O)cnc3ccc(-c4ccc([S+](C)[O-])cc4)cc23)c1` (stereo unspecified) yielded an IFI of 4.41%. As for `CC(C)N1CCC(N(Cc2ccc(-c3ccc(C(F)(F)F)cc3)cc2)C(=O)Cn2c(CCc3cccc(F)c3F)cc(=O)c3cn(C)nc32)CC1`, the figure is 12.8%. As for `CN1CCC(N(C)C(=O)C=Cc2cn(-c3ccccc3)nc2-c2cc3ccccc3o2)CC1`, the figure is 5.71%.

These data come from ChEMBL document CHEMBL1157539, “Thousands of chemical starting points for antimalarial lead identification” (Nature, 2010).
